# Legend:
# [1] = tested on: HCC patient-derived spheroids (primary HCC tumorspheres); test: HCC patient-derived spheroid viability (CellTiterGlo 3D, ATP quantification); type: cell-based, human
# Excerpt: Fragments of tumor tissue (5×5 mm to 8×8 mm size) were excised from tumor mass of HCC patients (n=15 different donors, Table 2) and then processed with enzymatic and mechanical dissociation to generate clusters of tumor cells similarly as described recently (Crouchet E, et al., Nat Commun 2021; 12:5525; Jühling F, et al., Gut 2021; 70:157-69). Aggregates of cells were assembled into spheroids in 96-well Black/Clear Bottom Low Flange Ultra-Low Attachment Microplates (Corning) and cultured in MammoCult basal medium (STEMCELL Technologies), supplemented with human proliferation supplement (3.4%), hydrocortisone (0.056%), heparin (0.011%) and 50% patients' own serum.
# (§1) Tumorspheres were treated for 6 days with 10 μg/mL isotype control mAb, with 10 μg/mL anti-Claudin-1 mAb “H3L3” (Table 1), with sorafenib (10 μM, Selleckchem) or with Nivolumab (10 μg/mL, Selleckchem) with at least duplicates per condition. Tumorsphere viability was assessed at day 6 using CellTiterGlo 3D (Promega) according to the manufacturer's instructions.
# [2] = tested on: HCC patient-derived spheroids (primary HCC tumorspheres); test: Microscopy of HCC patient-derived tumor spheroids (architecture); type: cell-based, human; settings: 10 μg/mL mAb, day 6 post-treatment, vs control mAb; FIG. 1A
# Method: Scale bars 200 μm. FIG. 1B depicts graphs showing relative cell viability after 6 days of treatment with anti-Claudin-1 mAb “H3L3” (Table 1) or sorafenib compared to control mAb treated spheroids (n=3 replicates per condition, p=0.003 and p=0.04, Student's t-test). Bars show mean±SEM. *p<0.05, **p<0.01, ***p<0.001, **** p<0.0001. FIG. 1C depicts a heatmap showing cell viability of tumor spheroids (n=15 donors) were treated with anti-Claudin-1 mAb “H3L3”, control Ab, sorafenib or nivolumab. Heatmaps illustrate % cell viability compared to control mAb treated cells on day 6 using ATP quantification (n=15 different donors with at least duplicates per condition). Donors (# ST1, # S06, # S15, # S16, # S17, # S18, # R2, # R21, # R24, # R11, # 381, # S19, # S22, # S349, # S394). […]
# as §1
molecule,measurement,setting,value
"H3L3: humanized anti-Claudin-1 monoclonal antibody; heavy chain SEQ ID NO: 11, light chain SEQ ID NO: 12 (VH SEQ 13, VL SEQ 14) (antibody) heavy: QVQLVESGGGVVQPGRSLRLSCLGSGFSFSSYGMNWVRQAPGKGLEWVASISPSGSYFYYADSVKGRFTISRDNSKNTLYLQMTSLRAEDTAIYYCARLPGFNPPFDHWGQGTLVTVSSASTKGPSVFPLAPSSKSTSGGTAALGCLVKDYFPEPVTVSWNSGALTSGVHTFPAVLQSSGLYSLSSVVTVPSSSLGTQTYICNVNHKPSNTKVDKRV[sequence of human IgG1 Fc not given] light: DIQMTQSPSSLSASVGDRVTITCKASQNVGGNVDWYQWKPGKAPKLLIYGASNRYTGVPDRFRGSGSGTDFTLTISSLQPEDVATYYCLQYKNNPWTFGGGTKVEIKRTVAAPSVFIFPPSDEQLKSGTASVVCLLNNFYPREAKVQWKVDNALQSGNSQESVTEQDSKDSTYSLSSTLTLSKADYEKHKVYACEVTHQGLSSPVTKSFNRGEC",effect on sorafenib-resistant HCC spheroid cell viability,"[1]; 10 μg/mL, 6 days of treatment, vs control mAb treated spheroids, n=3 replicates, p=0.003 and p=0.04, Student's t-test, FIG. 1B",pronounced effect
same,response rate (defined as a mean decrease in cell viability of >15%),"[1]; HCC spheroids from 15 different HCC patients, 6 days, H3L3 10 μg/mL, sorafenib 10 μM, nivolumab 10 μg/mL, vs control mAb, FIG. 1C",47%
same,effect on HCC growth including sorafenib- and nivolumab-resistant tumors,[1]; overall conclusion from the patient-derived spheroid data,strong suppressive effects
same,effect on architecture of HCC spheroids,[2],markedly disrupted the architecture of HCC spheroids

# Source: patent publication US20260015416A1, “TREATMENT OF DRUG-RESISTANT HEPATOCELLULAR CARCINOMA” (Alentis Therapeutics AG, priority 2022, published 2026)
